# This is one part of the list.
# What was measured:
# Assay in all cases: glycan array binding signal (z-score within array); higher = stronger binding
# Settings in all cases: glycan notation: IUPAC condensed, linker removed
# [1] = target: Gal(b1-4)GlcNAc(b1-2)Man(a1-3)[Gal(b1-4)GlcNAc(b1-2)Man(a1-6)]Man(b1-4)GlcNAc(b1-4)[Fuc(a1-6)]GlcNAc
# Outline: (§1)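 Negative Z-scores can be read as non-binding. The Z-score is calculated within each array and then averaged across arrays of one protein sequence at different concentrations or buffers and across linkers. Arrays, 3228 in all, were curated from the Consortium for Functional Glycomics database and kept only where the protein sequence was available.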
# [2] = target: Gal(b1-4)GlcNAc(b1-2)Man(a1-3)[Gal(b1-4)GlcNAc(b1-2)Man(a1-6)][Gal(b1-4)GlcNAc(b1-4)]Man(b1-4)GlcNAc(b1-4)[Fuc(a1-6)]GlcNAc
# Outline: as §1
# [3] = target: Gal(b1-4)GlcNAc(b1-2)Man(a1-3)[Gal(b1-4)GlcNAc(b1-2)Man(a1-6)][GlcNAc(b1-4)]Man(b1-4)GlcNAc(b1-4)[Fuc(a1-6)]GlcNAc
# Outline: as §1
# [4] = target: Gal(b1-4)GlcNAc(b1-2)Man(a1-3)[GlcNAc(b1-2)Man(a1-6)]Man(b1-4)GlcNAc(b1-4)GlcNAc
# Outline: as §1
# [5] = target: Gal(b1-4)GlcNAc(b1-2)Man(a1-3)[GlcNAc(b1-4)][Gal(b1-4)GlcNAc(b1-2)Man(a1-6)]Man(b1-4)GlcNAc(b1-4)GlcNAc
# Outline: as §1
# [6] = target: Gal(b1-4)GlcNAc(b1-2)Man(a1-3)[Man(a1-6)]Man(b1-4)GlcNAc(b1-4)GlcNAc
# Outline: as §1
# [7] = target: Gal(b1-4)GlcNAc(b1-2)Man(a1-6)Man(b1-4)GlcNAc(b1-4)GlcNAc
# Outline: as §1
# [8] = target: Gal(b1-4)GlcNAc(b1-2)Man(a1-6)[GlcNAc(b1-2)Man(a1-3)]Man(b1-4)GlcNAc(b1-4)GlcNAc
# Outline: as §1
# [9] = target: Gal(b1-4)GlcNAc(b1-2)Man(a1-6)[Man(a1-3)]Man(b1-4)GlcNAc(b1-4)GlcNAc
# Outline: as §1
# [10] = target: Gal(b1-4)GlcNAc(b1-2)[Gal(b1-4)GlcNAc(b1-4)]Man(a1-3)[Gal(b1-4)GlcNAc(b1-2)Man(a1-6)]Man(b1-4)GlcNAc(b1-4)GlcNAc
# Outline: as §1
# [11] = target: Gal(b1-4)GlcNAc(b1-2)[Gal(b1-4)GlcNAc(b1-4)]Man(a1-3)[Gal(b1-4)GlcNAc(b1-2)[Gal(b1-4)GlcNAc(b1-6)]Man(a1-6)]Man(b1-4)GlcNAc(b1-4)GlcNAc
# Outline: as §1
# [12] = target: Gal(b1-4)GlcNAc(b1-2)[Gal(b1-4)GlcNAc(b1-4)]Man(a1-3)[GlcNAc(b1-4)][Gal(b1-4)GlcNAc(b1-2)Man(a1-6)]Man(b1-4)GlcNAc(b1-4)GlcNAc
# Outline: as §1
# [13] = target: Gal(b1-4)GlcNAc(b1-2)[Gal(b1-4)GlcNAc(b1-4)]Man(a1-3)[GlcNAc(b1-4)][Gal(b1-4)GlcNAc(b1-2)[Gal(b1-4)GlcNAc(b1-6)]Man(a1-6)]Man(b1-4)GlcNAc(b1-4)GlcNAc
# Outline: as §1
# [14] = target: Gal(b1-4)GlcNAc(b1-2)[Gal(b1-4)GlcNAc(b1-6)]Man(a1-6)[Gal(b1-4)GlcNAc(b1-2)Man(a1-3)]Man(b1-4)GlcNAc(b1-4)GlcNAc
# Outline: as §1
# [15] = target: Gal(b1-4)GlcNAc(b1-2)[Gal(b1-4)GlcNAc(b1-6)]Man(a1-6)[Gal(b1-4)GlcNAc(b1-2)Man(a1-3)]Man(b1-4)GlcNAc(b1-4)[Fuc(a1-6)]GlcNAc
# Outline: as §1
# [16] = target: Gal(b1-4)GlcNAc(b1-2)[Gal(b1-4)GlcNAc(b1-6)]Man(a1-6)[GlcNAc(b1-4)][Gal(b1-4)GlcNAc(b1-2)Man(a1-3)]Man(b1-4)GlcNAc(b1-4)GlcNAc
# Outline: as §1
# [17] = target: Gal(b1-4)GlcNAc(b1-2)[Gal(b1-4)GlcNAc(b1-6)]Man(a1-6)[GlcNAc(b1-4)][Gal(b1-4)GlcNAc(b1-2)[Gal(b1-4)GlcNAc(b1-4)]Man(a1-3)]Man(b1-4)GlcNAc(b1-4)[Fuc(a1-6)]GlcNAc
# Outline: as §1
# [18] = target: Gal(b1-4)GlcNAc(b1-3)Gal(b1-3)GalNAc
# Outline: as §1
# [19] = target: Gal(b1-4)GlcNAc(b1-3)Gal(b1-3)GlcNAc
# Outline: as §1
binder,measurement,setting,value
Nc3LysM (protein) QFTVPPDTTAEPNTIKTCTWWHVAGSGDSCTSIASTYGITSEQFARWDMETTDSPKNPSVATACKLTVGNSYCIENNFGQDDPPTPSISSSTLIGTATTSTTASTTTGNGISTPTPIQEGMETATTTTSSGNGITTPTPTQAGMETVGNCDRFHLVKSGDQCGTIASTYGITLANFYSWNPAVGTSCQSLWLDTYVCVRTIGFVPPKTTTTTTKKPTSTTSAGGVATPTPTQPGMETVSGCKKFHKGRGNVSTVASGDQCGTIATRYGISLANFYSWNPAVGSSCQTLWLDYYVCVGR,glycan array binding signal (z-score),[1],-0.048
same,glycan array binding signal (z-score),[2],-0.28
same,glycan array binding signal (z-score),[3],0.071
same,glycan array binding signal (z-score),[4],-0.02
same,glycan array binding signal (z-score),[5],-0.185
same,glycan array binding signal (z-score),[6],0.019
same,glycan array binding signal (z-score),[7],-0.04
same,glycan array binding signal (z-score),[8],-0.077
same,glycan array binding signal (z-score),[9],0.128
same,glycan array binding signal (z-score),[10],0.121
same,glycan array binding signal (z-score),[11],-0.122
same,glycan array binding signal (z-score),[12],-0.176
same,glycan array binding signal (z-score),[13],-0.152
same,glycan array binding signal (z-score),[14],-0.116
same,glycan array binding signal (z-score),[15],0.105
same,glycan array binding signal (z-score),[16],-0.044
same,glycan array binding signal (z-score),[17],-0.051
same,glycan array binding signal (z-score),[18],-0.041
same,glycan array binding signal (z-score),[19],-0.164

# Source: the supplement of paper PMC8728848
